At least one compound was matched to its structure with a doubt left.
What was measured:
OATP1B1 = biological target: T1, OATP1B1 (Homo sapiens, UniProt Q9Y6L6); test: Uptake into stable transfected OATP1B1 HEK 293 cells; format: cell-based; settings: inhibition of test item uptake by Rifampicine
T1 construct: expressed in transfected cells
T1 sequence (Q9Y6L6 1-691): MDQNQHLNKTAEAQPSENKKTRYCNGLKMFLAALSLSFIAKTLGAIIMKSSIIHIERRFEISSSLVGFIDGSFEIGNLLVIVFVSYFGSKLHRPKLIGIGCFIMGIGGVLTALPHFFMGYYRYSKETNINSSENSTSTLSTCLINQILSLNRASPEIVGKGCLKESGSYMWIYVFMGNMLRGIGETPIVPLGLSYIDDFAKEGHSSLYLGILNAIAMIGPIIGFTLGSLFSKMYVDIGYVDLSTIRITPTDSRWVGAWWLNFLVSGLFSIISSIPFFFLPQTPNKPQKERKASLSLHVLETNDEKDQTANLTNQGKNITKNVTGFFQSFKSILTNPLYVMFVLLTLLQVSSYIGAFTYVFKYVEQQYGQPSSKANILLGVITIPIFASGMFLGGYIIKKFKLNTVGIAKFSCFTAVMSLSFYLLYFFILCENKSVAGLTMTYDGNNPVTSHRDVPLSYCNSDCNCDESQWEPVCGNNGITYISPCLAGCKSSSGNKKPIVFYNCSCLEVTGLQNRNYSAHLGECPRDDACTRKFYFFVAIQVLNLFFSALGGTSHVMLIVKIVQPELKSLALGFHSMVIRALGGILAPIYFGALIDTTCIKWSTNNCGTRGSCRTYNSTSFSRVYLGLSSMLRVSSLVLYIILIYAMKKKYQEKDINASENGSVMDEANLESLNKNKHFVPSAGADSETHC
Protocol: Human stable transfected OATP1 B1 human embryonic kidney 293 cells (OATP1 B1 HEK 293, SLCO1B1, Entrez Gene ID: 10599) were used (Leonhardt M et al. Drug Metab Dispos. 2010 July; 38(7):1024-8). The following culture medium was used: 500 mL DMEM (Dulbecco's Modified Eagle Medium—high Glucose, D6429), 50 mL FCS (fetal bovine serum, Fa. Sigma, F7524), 5.8 mL G418 (Geneticin, Fa. Gibco 10131-027) and 5 mL Pen-Strep. (Penicillin-Streptomycin, Fa. Gibco, Ref 15140-122). Cryopreserved cells were shortly thawed in water bath and diluted in 10 mL warm culture medium (37 °C). After medium change the cells were grown for 3d in a 25 cm^2 cell culture flask. After 3 to 5d the cells were transferred into 75 cm^2 flasks. For the splitting the cells were incubated with 1.5 mL trypsin (Trypsin-EDTA (1×) 0.05%, Ref 25300-054 100 ml, Fa. Gibco) for 3-5 min in the incubator (37 °C, 5% CO2 and 95% oxygen). After centrifugation and washing with medium the cells were counted (50 μL cell suspension and 50 μL trypan blue (Trypan Blue Solution, 93595-50 ml, Fa. Fluka). Cells were cultured (1×10^5 cells/well) in poly-D-lysine coated 24-well plates (Fa. Corning, Ref: 354414) in 1.5 mL medium per well. After 48 h in the incubator the medium was changed and 1.5 mL/well sodium butyrate containing medium were added (40 mL culture medium plus 400 μL Na-Butyrate, Fa. Sigma Aldrich B5887-5G, 250 mg in 2.27 mL MilliQ water). After 24 h in the incubator the medium was vacuumed off and 1.5 mL transport buffer was added and incubated for 10 min. The transport buffer contains the following ingredients: 500 mL HBSS (Hank's balanced salt solution, Hyclone, SH30268.01), 5 mL HEPES buffer (4-(2-hydroxyethyl)-1-piperazine-ethanesulfonic acid, Gibco 15630-056) and 3.9 mL glucose (Sigma, G8270-100, 90 g/200 mL MilliQ water). All test items were prepared in transport buffer at a final concentration of 100 μM from stock solutions (180 to 500 mM concentration). The OATP1B1 HEK 293 cells were incubated with test solutions (test item in transport buffer 500 μL) for 40 min on a thermoshaker without shaking (PHMP, Fa. Grant Bio). Triplicates were performed for each test item. After incubation the cells were washed with 2 mL of cold PBS (+) buffer (Dulbeccos PBS+, Fa. Gibco). […] As a reference standard Gd-EOB-DTPA (gadoxetate) is used in the same well plate. The OATP1B1 HEK 293 uptake of the test compound is calculated relative to gadoxetate (resulting in the unit % of RC1).

[1] = test system: freshly isolated rat hepatocytes; test: Uptake into freshly isolated rat hepatocytes; format: cell-based; settings: inhibition of test item uptake by Rifampicine (OATP1B1/1B3 inhibitor), 1:1 each 100 μM, 10 min
Protocol: Triplicates were performed for each test item.

CCOCCOCCOCCOc1ccc(C[C@H]2CN(CC(=O)[O-])CCN(CC(=O)[O-])CCN(CC(=O)O)CCN2CC(=O)[O-])cc1.[Gd+3] [Example 5, Gadolinium-2,2′,2″-[(2S)-10-(carboxymethyl)-2-(4-{2-[2-(2-ethoxyethoxy)ethoxy]ethoxy}benzyl)-1,4,7,10-tetraazacyclododecane-1,4,7-triyl]triacetate]
Inhibition Rifampicine (OATP1B1): 41 % inhibition | Inhibition Rifampicine [1]: 89 % inhibition

CCCCOc1ccc(C[C@H]2CN(CC(=O)[O-])CCN(CC(=O)[O-])CCN(CC(=O)O)CCN2CC(=O)[O-])cc1.[Gd+3] (single isomer, unassigned; stereoisomer 2) [Example 13]
Inhibition Rifampicine (OATP1B1): 88 % inhibition | Inhibition Rifampicine ([1]; 100 µM): 86 % inhibition

CCOc1ccc(CC(CN(CCN(CC(=O)[O-])CC(=O)[O-])CC(=O)[O-])N(CC(=O)[O-])CC(=O)[O-])cc1.[Gd+3].[Na+].[Na+] (centres unmarked) [RC1, gadoxetate disodium]
Inhibition Rifampicine (OATP1B1): 81 % inhibition | Inhibition Rifampicine [1]: 97 % inhibition

CCOc1ccc(CC2CN(CC(=O)[O-])CCN(CC(=O)[O-])CCN(CC(=O)O)CCN2CC(=O)[O-])cc1.[Gd+3] (centres unmarked) [Example 7, Gadolinium-2,2′,2″-[10-(carboxymethyl)-2-(4-ethoxybenzyl)-1,4,7,10-tetraazacyclododecane-1,4,7-triyl]triacetate]
Inhibition Rifampicine (OATP1B1): 78 % inhibition | Inhibition Rifampicine ([1]; 100 µM): 96 % inhibition

CCOCCOCCOc1ccc(C[C@H]2CN(CC(=O)[O-])CCN(CC(=O)[O-])CCN(CC(=O)O)CCN2CC(=O)[O-])nc1.[Gd+3] [Example 6, Gadolinium 2,2′,2″-[(2S)-10-(carboxymethyl)-2-({5-[2-(2-ethoxyethoxy)ethoxy]pyridin-2-yl}methyl)-1,4,7,10-tetraazacyclododecane-1,4,7-triyl]triacetate]
Inhibition Rifampicine (OATP1B1): 2 % inhibition | Inhibition Rifampicine [1]: 91 % inhibition

CCCCOc1ccc(C[C@H]2CN(CC(=O)[O-])CCN(CC(=O)[O-])CCN(CC(=O)O)CCN2CC(=O)[O-])cc1.[Gd+3] (single isomer, unassigned; stereoisomer 1) [Example 12]
Inhibition Rifampicine (OATP1B1): 81 % inhibition | Inhibition Rifampicine ([1]; 100 µM): 96 % inhibition

CCOc1ccc(CC2CN(CC(=O)[O-])CCN(CC(=O)[O-])CCN(CC(=O)O)CCN2CC(=O)[O-])cc1.[Gd+3] (single isomer, unassigned; diastereomer 2) [Example 9, Gadolinium-2,2′,2″-[10-(carboxymethyl)-2-(4-ethoxybenzyl)-1,4,7,10-tetraazacyclododecane-1,4,7-triyl]triacetate (racemic diastereomer 2)]
Inhibition Rifampicine (OATP1B1): 23 % inhibition | Inhibition Rifampicine ([1]; 100 µM): 93 % inhibition

CCOc1ccc(C[C@H]2CN(CC(=O)[O-])CCN(CC(=O)[O-])CCN(CC(=O)O)CCN2CC(=O)[O-])cc1.[Gd+3] (single isomer, unassigned; stereoisomer 1) [Example 10]
Inhibition Rifampicine (OATP1B1): 73 % inhibition | Inhibition Rifampicine [1]: 96 % inhibition

CCOc1ccc(CC2CN(CC(=O)[O-])CCN(CC(=O)[O-])CCN(CC(=O)O)CCN2CC(=O)[O-])cc1.[Gd+3] (single isomer, unassigned; diastereomer 1) [Example 8, Gadolinium-2,2′,2″-[10-(carboxymethyl)-2-(4-ethoxybenzyl)-1,4,7,10-tetraazacyclododecane-1,4,7-triyl]triacetate (racemic diastereomer 1)]
Inhibition Rifampicine (OATP1B1): 75 % inhibition | Inhibition Rifampicine ([1]; 100 µM): 96 % inhibition

CCOc1ccc(C[C@H]2CN(CC(=O)[O-])CCN(CC(=O)[O-])CCN(CC(=O)O)CCN2CC(=O)[O-])cc1.[Gd+3] (single isomer, unassigned; stereoisomer 2) [Example 11]
Inhibition Rifampicine (OATP1B1): 64 % inhibition | Inhibition Rifampicine [1]: 96 % inhibition
